Assay results as given in publication PMC4336329 (PLoS ONE, 2015).
The whole screen tested about 310,000 compounds, of which about 14,000 (4.5%) showed an effect of 50% or more. Effects have a minus sign here. The list shows a part of the results.

target: human ether-à-go-go-related gene (hERG) potassium channel (human, UniProt Q12809); assay: primary screen, population patch clamp on CHO cells stably expressing hERG
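Also: peak tail current of the secondary pulse compared with the same well before compound.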

Sequence of human ether-à-go-go-related gene (hERG) potassium channel (Q12809 whole entry, looked up): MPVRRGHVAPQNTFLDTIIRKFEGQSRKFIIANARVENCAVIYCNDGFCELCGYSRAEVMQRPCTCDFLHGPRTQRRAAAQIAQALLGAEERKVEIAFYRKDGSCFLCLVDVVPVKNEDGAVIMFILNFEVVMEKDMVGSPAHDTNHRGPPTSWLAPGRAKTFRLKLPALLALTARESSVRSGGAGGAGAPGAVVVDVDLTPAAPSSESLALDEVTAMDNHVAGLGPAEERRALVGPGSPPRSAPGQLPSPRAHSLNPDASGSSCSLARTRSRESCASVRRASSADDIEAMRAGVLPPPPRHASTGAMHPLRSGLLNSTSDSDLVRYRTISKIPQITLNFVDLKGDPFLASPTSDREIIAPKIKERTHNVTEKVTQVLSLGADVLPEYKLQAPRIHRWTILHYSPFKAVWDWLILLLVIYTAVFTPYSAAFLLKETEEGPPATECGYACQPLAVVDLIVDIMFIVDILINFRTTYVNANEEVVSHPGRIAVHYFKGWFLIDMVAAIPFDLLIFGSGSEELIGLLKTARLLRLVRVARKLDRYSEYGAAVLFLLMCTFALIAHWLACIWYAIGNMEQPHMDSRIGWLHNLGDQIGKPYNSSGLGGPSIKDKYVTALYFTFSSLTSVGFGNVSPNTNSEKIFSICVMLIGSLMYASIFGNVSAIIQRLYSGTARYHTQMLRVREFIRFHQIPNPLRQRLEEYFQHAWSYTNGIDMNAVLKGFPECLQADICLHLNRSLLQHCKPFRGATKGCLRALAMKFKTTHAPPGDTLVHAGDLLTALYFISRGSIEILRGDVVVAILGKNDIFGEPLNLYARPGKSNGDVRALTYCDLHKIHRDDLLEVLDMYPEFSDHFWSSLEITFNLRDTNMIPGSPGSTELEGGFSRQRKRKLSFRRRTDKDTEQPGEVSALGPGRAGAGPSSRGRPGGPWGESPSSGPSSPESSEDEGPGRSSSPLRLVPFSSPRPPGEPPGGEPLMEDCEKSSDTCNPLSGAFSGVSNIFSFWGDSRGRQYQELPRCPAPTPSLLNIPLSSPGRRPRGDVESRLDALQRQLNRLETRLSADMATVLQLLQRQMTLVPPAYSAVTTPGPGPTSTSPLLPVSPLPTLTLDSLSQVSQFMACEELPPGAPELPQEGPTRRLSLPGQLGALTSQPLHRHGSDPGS

SMILES | hERG current change (%, negative = inhibition) at 10uM
Cc1cc(C)c(C(=O)COC(=O)c2ccc(NC(=O)CC#N)cc2)cc1C | 15.5%
Cc1ccc(S(=O)(=O)Nc2ccc(S(=O)(=O)Nc3nccs3)cc2)c([N+](=O)[O-])c1 | -23.9%
Cc1cc(C(F)F)n2ncc(C(=O)NCc3ccccc3F)c2n1 | -8.91%
C/C=C/c1ccc(OCC(=O)OCC(=O)Nc2c(C)nn(-c3ccccc3)c2C)c(OC)c1 | 8.24%
CN(Cc1ccc(C(C)(C)C)cc1)C(=O)C1CSC2(C)CCC(=O)N12 (stereo not drawn) | 9.94%
COC(=O)/C(C#N)=C/c1ccc(-c2ccc(S(N)(=O)=O)cc2)o1 | -7.16%
CN(C(=O)COC(=O)c1ccccc1Nc1ccccc1)c1c(N)n(Cc2ccccc2)c(=O)[nH]c1=O | 21%
Cc1ccc2c(CC(=O)Nc3ccc(F)c(S(=O)(=O)N4CCOCC4)c3)coc2c1 | 4.16%
Cc1cc(C)c[n+](-c2nc3ccccc3nc2C(=C=[N-])C#N)c1 | 19.4%
COc1ccc(CCN(C)Cc2c(F)cccc2F)cc1OC | -25.6%
CCOC(=O)C/C(C)=N/NC(=O)c1cccs1 | -6.1%
CCN1CCN(C(=O)CCc2nc3ccccc3c(=O)[nH]2)CC1 | 24.5%
O=C(CCCN1C(=O)[C@H]2CC=CC[C@H]2C1=O)NCc1nc(-c2ccc(Cl)cc2)no1 | 4.08%
COc1cc2c(cc1Cl)C(=O)C(F)(c1ccccc1)C(=O)N2 (stereo not drawn) | 11.6%
O=C(CCn1c(=S)[nH]c2ccccc2c1=O)NCCc1ccccc1 | 16.7%
CC(C)(C)c1ccc(NC(=S)NCc2cccs2)cc1 | 4.35%
CSc1ccccc1C(=O)NCCOc1ccccc1C | 3.99%
O=C(N/N=C\c1cccnc1)c1ccccc1O | -17.5%
COC(=O)c1cc(Br)ccc1NC(=O)CCNC(=O)c1ccco1 | -35.5%
COC(=O)[C@@]12CCCCN1[C@H](c1ccc(-c3ccccc3)cc1)[C@H]1C(=O)N(C)C(=O)[C@H]12.O=C(O)C(F)(F)F | 6.37%
Cc1cccc(C(=O)Nc2ccc(C(=O)N3CCCCC3C)cc2)c1 (stereo not drawn) | -15.8%
COc1ccc(S(=O)(=O)Nc2ccc3c(c2)OCO3)cc1 | 6.47%

SMILES | hERG current change (%, negative = inhibition) at 10uM
CC1CCN(CCCCOc2ccccc2[N+](=O)[O-])CC1.O=C(O)C(=O)O | -26.3%
CN(CC(=O)Nc1ccc(OC(F)(F)F)cc1)C1CCCCC1.Cl | -61.6%
CC(C)CN1C(=O)C(=O)N(CC(=O)c2ccc3c(c2)CCCC3)C1=O | 8.25%
Cc1ccc(C(CNS(=O)(=O)c2ccc(F)cc2C)N2CCN(C)CC2)cc1 (stereo not drawn) | -57%
CCCOc1ccc(N2CC(C(=O)NCCc3ccc(OC)c(OC)c3)CC2=O)cc1 (stereo not drawn) | -6.97%
Fc1ccccc1OCCCCN1CCCCC1 | 5.03%
Brc1csc2ncccc12 | 1.64%
NC(=O)[C@@H]1CC2(CC(c3cccc(NC(=O)COc4ccc(Cl)cc4)c3)=NO2)CN1C(=O)COc1ccc(Cl)cc1 (stereo partly drawn) | -29.4%
COc1cc(NC(=O)c2ccc(F)cc2)c(OC)cc1Cl | 3%
Cc1nc(NCc2ccccc2)c(C(N)=O)c2c1COC(C)(C)C2 | -3.89%
Cc1ccccc1/C=N/NC(=O)Cc1ccc(Cl)cc1 | 17%
Cc1oc(-c2cc(F)ccc2F)nc1CN1CCN(c2cnccn2)CC1 | -28.2%
N#CC1=C(N)SC(N)=C(C#N)C1C1C=CCCC1 (stereo not drawn) | -14.4%
CCn1c(SCC(=O)Nc2ccc3c(c2)OCCO3)nnc1-c1ccncc1 | 0.979%
Cc1onc(-c2c(Cl)cccc2Cl)c1C(=O)O/N=C(\C#N)c1c(Cl)cccc1Cl | 9.4%
CC1=CN2C(=NC(=O)CC2(C)C(=O)N(CC(=O)NC2CCCC2)Cc2ccccc2)C=C1 (stereo not drawn) | 9.32%
Cc1ccc(-n2nc(-c3ccc(OC(F)(F)F)cc3)cc2N)cc1C | -0.351%
CCOc1cc(/C=C/c2ccc3cccc([N+](=O)[O-])c3n2)ccc1OCC(=O)N(C)C | -33.4%
O=C(CCc1nnc(C2(c3ccc(Cl)cc3)CCC2)o1)N1CCCC1 | -4.23%
COc1ccc(CCN(C)C(=O)COc2ccc(C(=O)c3ccccc3)cc2)cc1OC | -38.7%
Cc1ccc2nc(NNC(=O)c3ccc(S(=O)(=O)N4CCc5ccccc5C4)cc3)sc2c1 | 10.3%
Cc1cccc(C(=O)NC(=S)N2CCN(C)CC2)c1 | -8.42%

SMILES | hERG current change (%, negative = inhibition) at 10uM
CS(=O)(=O)N1CCC(C(=O)Nc2ccc(Cl)c(Cl)c2)CC1 | 0.0491%
CC(=O)c1cc2c(cc1NS(=O)(=O)c1ccccc1)OCO2 | -4.28%
CC1CCN(C(=O)c2cc3nc(C4CC4)cc(C(F)(F)F)n3n2)CC1 | -27.3%
CN(C(=O)CCN1C(=O)C(C)(C)Nc2ccccc21)c1ccccc1 | 5.28%
CCC1=Nc2cc(C(=O)NCc3ccco3)ccc2Sc2ccc(Cl)cc21 | 17.6%
CC1C(=O)N2CCCc3cc(S(=O)(=O)N(C)Cc4ccccc4)cc1c32 (stereo not drawn) | -14.7%
Cc1ccccc1CC1(CO)CCCN(C(=O)CCC(=O)c2ccccc2)C1 (stereo not drawn) | -16.7%
COC(=O)c1ccc(C[n+]2ccccc2)cc1.[Br-] | 17.3%
COc1ccc(S(=O)(=O)NC(CCSC)C(=O)NC2CCCCC2)cc1 (stereo not drawn) | 18.1%
COc1cc(C(=O)NCCC(=O)NCc2c(F)cc(F)cc2F)cc(OC)c1OC | 12.9%
Cc1ccc(SCc2cc(=O)[nH]c(Nc3nc(C)c4ccc(C)cc4n3)n2)cc1 | -20.4%
CCCCC1C(=O)NC(=S)NC1=O | 2.83%
C=CCN1C(=O)S/C(=C\c2ccc3c(c2)n(C)c(=O)n3C)C1=O | 5.81%
Cc1cc([N+](=O)[O-])nn1CC(=O)c1ccccc1 | 11.8%
CCOC(=O)C1CCN(C(=O)c2ccc(C)c(S(=O)(=O)N3CCCC3)c2)CC1 | 0.26%
Cc1ccc(NC(=O)COC(=O)CSCC(=O)Nc2cc(C)on2)c(C)c1 | -17.9%
COc1ccc(C(=O)CSc2nnc(-c3cccs3)n2-c2ccccc2)cc1 | 4.83%
CC(=O)NC(Cc1ccc(F)cc1)C(=O)NC1CCN(c2nnnn2-c2ccccc2)CC1 (stereo not drawn) | -41%
COc1cccc(/C=N/NC(=O)CNC(=O)c2cccnc2)c1O | 22.9%
CCOc1ccc2c(c1)c(N=Nc1cccc(C(=O)O)c1)c(O)n2C | 3.19%
CC1CCCC(C)N1c1nnc(NC(=O)c2cc(-c3ccc(Br)cc3)on2)s1 (stereo not drawn) | -5.29%
CS(=O)Cc1cc(Sc2ccccc2)nc(-c2cccnc2)n1 (stereo not drawn) | -20.4%

SMILES | hERG current change (%, negative = inhibition) at 10uM
O=C(NCc1ccncc1)Nc1ccccc1Cl | 5.67%
O=C(O)CCN1C(=O)c2ccc(NC(=O)CCc3ccccc3)cc2C1=O | 16.6%
CC(Sc1nc2ccccc2s1)C(=O)NCc1ccc2c(c1)OCO2 (stereo not drawn) | -13.7%
COc1ccc(C(=O)N2CCSCC2)cc1OC1CCN(C(C)=O)CC1 | 12%
CCOC(=O)c1ccc(NC(=O)C(C)NS(=O)(=O)c2ccc(OC)cc2)cc1 (stereo not drawn) | 4.16%
COc1ccc(C(=O)CN2C(=O)NC3(CCCCCC3)C2=O)c(OC)c1 | -12.2%
CC(C)c1cc(Br)ccc1OCCN1C(=O)NC(C)(C)C1=O | -7.82%
O=C(Nc1ccccc1C(F)(F)F)c1ncn[nH]1 | 10.9%
COc1ccc(-n2cc(CNC3CCN(C)CC3)c(-c3cccc(F)c3)n2)cc1 | -77.5%
Cc1ccccc1CNC(=O)CCC(=O)N1Cc2ccccc2Oc2ncccc21 | -25.9%
COc1ccc(-n2nc(C(=O)NCCCN3CCCC3=O)c3c4ccccc4n(C)c3c2=O)cc1Cl | 4.58%
CCN(CC)S(=O)(=O)c1cccc(C(=O)Nc2nncs2)c1 | 1.66%
N#C/C(=C/c1ccccc1)c1nn(CCO)c(N)c1C#N | -9.64%
Cc1cccc(-c2noc(Cc3ccccc3)n2)c1 | -11.8%
CCn1c(SCC(=O)c2c(N)n(C3CC3)c(=O)[nH]c2=O)nc2cc(S(N)(=O)=O)ccc21 | 8.9%
CC(=O)Nc1ccc(NC(=O)C(C)OC(=O)CCC(=O)c2ccc(F)cc2)cc1 (stereo not drawn) | -7.13%
CCN(CC(=O)N1CCN(Cc2ccccc2)CC1)S(=O)(=O)c1ccccc1 | -20.3%
C=CCN1C(=O)C2C(C(=O)NC3CCCCC3)C3C=CC2(O3)C1C(=O)NC1CCCC1 (stereo not drawn) | 5.46%
O=C(O)CNC(=O)C(c1ccccc1)c1ccccc1 | 4.42%
O=C(CCNC(=O)Cn1ccc2ccccc2c1=O)NCC1CCCC1c1ccccc1 (stereo not drawn) | 16.5%
COC(=O)c1c(C(=O)OC)c(-c2ccc(Br)cc2)n2c1CS(=O)C2 (stereo not drawn) | -1.16%
